Assay results reported in the supplement of paper PMC10126150.
Values marked as one replicate rest on one cluster of the flow cell; about a third of the high ones do not repeat.

tested on: ATP; assay: switch fluorescence ratio, 500 uM ATP over buffer (Cy3 cluster intensity, sum of 5 cycles each) (fold (ratio)); higher = stronger signal-on switching upon ATP binding; sequences stand for … in TCGTCGGCAGCGTCAGATGTGTATAAGAGACAGTTTTTTTTTTTTTTTTTTTTTTTTT…TC; settings: aptamer strand: ATP DNA aptamer (quencher-CACCTGGGGGAGTATTGCGGAGGAAGG + anchor), 100 nM annealed; ATP concentration: 500 uM; one replicate
How it was run: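 Clusters with intensities outside 100-1000 RFU were excluded. The remaining Cy3-labelled switching-strand clusters on a modified Illumina MiSeq flow-cell had been annealed to 100 nM quencher-labelled ATP aptamer and imaged in selection buffer, then after 15 min with 500 uM ATP at 22 °C, for five cycles separated by NaOH stripping and re-annealing. The fluorescence ratio, averaged per switch-domain sequence, is each cluster's summed target-cycle Cy3 intensity over its summed buffer-cycle Cy3 intensity.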
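Also: ATP exposure 15 min at 22 °C before imaging.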

Sequence	switch fluorescence ratio
TAAAGTAGCC	1.04
TAAAGTCGAA	0.973
TAAAGTGGGT	0.963
TAAAGTGTAA	1.02
TAAAGTTCGA	1.01
TAAAGTTGGA	0.936
TAAATAAAC	0.983
TAAATAAACG	1.04
TAAATAGTGT	0.989
TAAATATCT	1.02
TAAATATTCA	1.06
TAAATCAAGC	0.978
TAAATCGAAA	1
TAAATGGAGC	1.02
TAAATGT	1.01
TAAATGTTTT	1.14
TAAATTACGA	1.06
TAAATTCGCG	1.02
TAAATTCGGG	0.975
TAAATTGTAA	0.996
TAACAAACGT	1.25
TAACAACAGT	1.01
TAACAACTCA	1.02
TAACACTTGG	1.02
TAACAGAATT	1.03
TAACAGCATA	1.11

Sequence	switch fluorescence ratio
TAACAGCGGC	0.997
TAACAGTAT	1.03
TAACATTCGA	1
TAACATTGA	1.04
TAACCAAATC	1.02
TAACCACTCA	1.05
TAACCGGGTT	0.98
TAACCGTCCG	1.32
TAACGAAATC	1.19
TAACGAAGGG	1.02
TAACGCCTGC	1.07
TAACGGAGCA	1.92
TAACGGATGC	0.975
TAACGGTAGG	1.04
TAACGTACCT	1.31
TAACGTACGA	1.66
TAACGTCCGG	1
TAACGTCGGG	0.995
TAACGTGAAG	0.996
TAACTCCACT	1.23
TAACTCTCTT	1.51
TAACTTATCG	1.02
TAACTTCGCA	2.2
TAAGAATACG	1.01
TAAGACCTAC	1.22
TAAGACGGG	1.01

Sequence	switch fluorescence ratio
TAAGACTAGA	1.01
TAAGCACTAC	1.81
TAAGCATCAT	0.988
TAAGCCAAGT	1.05
TAAGCCGGAG	1
TAAGCCTGTG	1.01
TAAGCCTTTC	1.72
TAAGCGCCCC	1.19
TAAGCGTCTT	0.965
TAAGCTAAAC	1.26
TAAGCTTGCT	1.02
TAAGCTTGTC	1.14
TAAGGAATAA	0.976
TAAGGAGCTG	1.02
TAAGGCAGAT	1
TAAGGCGAAG	1.05
TAAGGCGCA	1
TAAGGCTGTA	1.02
TAAGGGGCTA	0.999
TAAGGGGGA	0.975
TAAGGGGT	1.25
TAAGGTATTG	0.997
TAAGGTCCAC	1.03
TAAGGTGCAT	1.15
TAAGTAGTTA	1.04
TAAGTATCGA	0.99

Sequence	switch fluorescence ratio
TAAGTCCCCT	1.51
TAAGTCTCAT	0.987
TAAGTCTTAC	1.08
TAAGTGAC	1.12
TAAGTGCTCC	1.01
TAAGTGGGAC	0.995
TAAGTTCAA	1.02
TAAGTTGAAA	1.03
TAAGTTGGAA	1.02
TAAGTTTGAT	0.976
TAATACAGGC	1.03
TAATACATAG	1.02
TAATACTCTA	1.16
TAATAGTTTT	0.982
TAATATGAAA	0.987
TAATATGCTT	0.969
TAATATTAT	0.991
TAATATTCGG	0.984
TAATCAGGA	1
TAATCAGGAC	0.995
TAATCATCCT	1.08
TAATCATCTG	0.999
TAATCCAGTA	0.979
TAATCCTTGT	0.984
TAATCTTGAA	0.985
TAATGAGAGT	0.959

Sequence	switch fluorescence ratio
TAATGCCTTC	1.1
TAATGGATG	1.03
TAATGGTAG	0.966
TAATGGTGCA	1.01
TAATGTGCAT	1
TAATGTGGTC	0.914
TAATGTGTTT	1.05
TAATTAGTAG	0.954
TAATTATAAA	0.985
TAATTCCAAA	1.04
TAATTGAAGT	0.955
TAATTGAGG	1.07
TAATTGGCTA	0.967
TAATTGGTTC	0.96
TAATTGTATA	0.994
TAATTGTTCG	1.04
TAATTGTTTA	0.998
TAATTTGCCA	0.958
TAATTTGCTT	0.982
TAATTTTTCT	1.02
TACAAATACC	1.05
TACAACATCT	1.06
TACAATACAC	1.29
TACAATCCGC	1.09
TACAATCTCC	1.43
TACACAAGT	1.1

Sequence	switch fluorescence ratio
TACACAGCCG	0.987
TACACCCATT	1.03
TACACGAGGG	0.948
TACACGAGTT	1.05
TACACGCTAG	1.05
TACACGTGGT	1.01
TACACTGGAA	1.06
TACAGAACTC	1.07
TACAGAAGCC	1.05
TACAGACATC	1.05
TACAGACTAC	1.28
TACAGCGGGC	1
TACAGCGTAT	0.995
TACAGGACAA	1.1
TACAGGTAAT	1.02
TACAGTGATC	1.03
TACATAACAT	1.08
TACATAATTT	1.06
TACATATAG	1.04
TACATATTGG	1.06
TACATCTATG	1.01
TACATGGGTC	0.96
TACATTTTCC	1.11
TACCAAGGCG	0.991
TACCAGCAGA	1.05
TACCATACGA	1.48

Sequence	switch fluorescence ratio
TACCATTCTG	0.992
TACCCACACA	1.39
TACCCAGCCG	1.16
TACCCCAAAC	1.25
TACCCCATTC	1.37
TACCCGGATT	1.03
TACCCGTTGG	1.03
TACCGCTCGT	1.25
TACCGCTGTA	1.14
TACCGGATCT	1.01
TACCGGCTAG	1.01
TACCGGGCAA	1.64
TACCGGGTA	0.987
TACCGTCACC	1.59
TACCGTGTG	1.02
TACCTATTTG	1
TACCTCGGGT	1.04
TACCTCTC	1.03
TACCTGCTGC	1.05
TACCTGTG	1.05
TACCTTGGCC	1.1
TACCTTGTGC	1.03
TACGAAAGCA	1.06
TACGAACGA	1.48
TACGAATGGA	1.01
TACGACGAA	1.22

Sequence	switch fluorescence ratio
TACGACGTAG	0.96
TACGAGACGC	1.16
TACGAGATTG	1.06
TACGAGGAAC	1.03
TACGATCACG	1.13
TACGATGAAT	1
TACGATGGAT	1.01
TACGCAACTG	1.54
TACGCCGAGG	1.02
TACGCCTCGC	1.1
TACGCGCTGC	1.01
TACGCGGTTC	1.11
TACGGACTGG	1.12
TACGGAGCAT	6.05
TACGGAGGTG	1.05
TACGGATTTT	1.03
TACGGCAATT	1.23
TACGGCTGAT	0.985
TACGGCTGCG	1.03
